Values joined by “and” are separate entries in the source; they are usually repeats but may differ in a detail not shown here. Equal values may be shown once. Screen size: about 420,000 compounds; about 64,000 (15%) were called active. Inconclusive results, whose numbers are uncertain, are shown with a selection of clear calls. Calls come from the whole dose curve; as a rule, active = well fitted inhibition curve with a large enough effect; inconclusive = small, poorly fitted or top-dose-only effect; inactive = flat fitted curve, though single readings scatter. Where the call is inconclusive, the potency comes from a doubtful curve fit.
experiment: qHTS for Inhibitors of human tyrosyl-DNA phosphodiesterase 1 (TDP1): qHTS in cells in absence of CPT; details: DT40 Tdp1-/- hTDP1 cells, no CPT, ATP luminescence, 48 h; activity change, negative = growth inhibition: at 46.2 µM (top of the series) unless noted; note: nearly all actives have a fitted effect of over 55% in size
How it was run: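 A cellular qHTS used chicken DT40 cells lacking endogenous Tdp1 but carrying stably transfected human TDP1. Compounds were applied without camptothecin, and cell growth kinetics were judged by ATP-dependent luminescence after ≥48 hr.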
% is set by controls: 0 for no effect and ±100 for the full control effect; potency is the fitted concentration of half-maximal effect; tags give direction and shape of the fitted curve.

Row | Structure (SMILES) | Potency | activity change, negative = growth inhibition
1 | CCOc1ccc(Cl)cc1S(=O)(=O)n1nnc2ccccc21 | inconclusive: 25.9 µM [inhibitor, single point] | –
2 | CCOC(=O)CSC1=Nc2ccccc2C2=NC(CC(=O)NCc3ccc(OC)cc3)C(=O)N12 (stereo unspecified) | inactive | –
3 | Nc1ccccc1-c1ccc([N+](=O)[O-])cc1 | inactive | –
4 | CCn1cc(S(=O)(=O)c2cc(C)cc(C)c2)c(=O)c2cc(F)c(N3CCC(C)CC3)cc21 | inconclusive: 18.4 µM [inhibitor, single point] | –
5 | CCOc1ccc(N(C(=O)c2ccc(C)cc2)S(=O)(=O)c2ccc3c(c2)n(C)c(=O)n3C)cc1 | inconclusive: 20.6 µM [inhibitor, single point] | –
6 | COc1ccc(-c2c(C)cc3oc(=O)cc(-c4ccccc4)c3c2C)cc1F | inconclusive: 16.4 µM [inhibitor, single point] | –
7 | COCc1nc2c([nH]1)c(=O)n(C)c(=O)n2CC(C)C | inactive | –
8 | COc1ccc(C(=O)OCC(=O)Nc2cccc(S(=O)(=O)N3CCCCCC3)c2)cc1[N+](=O)[O-] | inconclusive: 29.1 µM [inhibitor, single point] | –
9 | Cc1ccc2nc(-c3ccc(C)c(NC(=O)CSc4ccc(Cl)cc4)c3)oc2c1 | inconclusive: 25.9 µM [inhibitor, single point] | –
10 | Cc1coc2c(C)c3oc(=O)c(CCC(=O)N4C[C@H]5C[C@@H](C4)c4cccc(=O)n4C5)c(C)c3cc12 | inconclusive: 29.1 µM [inhibitor, single point] | –
11 | CCN(CC)S(=O)(=O)c1cccc(C(=O)OCC(=O)NCCN2C(=O)CSC2=O)c1 | inactive | –
12 | Cc1cc(NC(=O)C2CC2)ncc1NC(=O)c1ccccn1 | inactive | –
13 | Cc1ccc(N(C(=O)c2csnn2)C(C(=O)NC2CCCC2)c2ccccn2)cc1 (stereo unspecified) | inactive | –
14 | COc1ccc(CC(=O)Nc2nc(-c3ccccc3)c(C(C)=O)s2)cc1OC | inconclusive: 23.1 µM [inhibitor, single point] | –
15 | COc1ccc2oc(=N)c(C(=O)Nc3ccccc3)cc2c1 | inconclusive: 20.6 µM [inhibitor, single point] | –
16 | Cc1ccc(C)n1-c1nnc(N2CCCC(C(=O)NCc3ccc(F)cc3)C2)s1 (stereo unspecified) | active: 8.2 µM | –
17 | Cc1ccc(C(C(=O)NCC2CCCO2)N(C(=O)c2snc(C(N)=O)c2N)c2ccccc2)o1 (stereo unspecified) | inconclusive: 16.4 µM [inhibitor, partial curve] | –
18 | COc1ccc(NC(=O)CSc2nncc3ccccc23)cc1 | inactive | –
19 | COC(=O)COc1ccc(S(=O)(=O)N2CCN(c3ccc(F)cc3)CC2)cc1 | inactive | –
20 | Cc1ccc(Cl)cc1N1CCN(C(=O)Cn2cnc3nc4c(cc3c2=O)CCCC4)CC1 | inconclusive: 29.1 µM [inhibitor, single point] | –
21 | CC1(c2ccc3c(c2)OCCO3)NC(=O)N(CC(=O)Nc2ccccc2F)C1=O (stereo unspecified) | inactive | –
22 | Cc1nn2c(-c3ccc(S(=O)(=O)N4CCN(C)CC4)o3)nnc2c2ccccc12 | inactive | –
23 | COc1cccc(NC(=O)c2ccc(S(=O)(=O)N3CCCCC3)cc2)c1 | inconclusive: 29.1 µM [inhibitor, single point] | –
24 | COc1ccc(CCNC(=S)N2CCN(S(=O)(=O)c3ccc(C)cc3)CC2)cc1 | inactive | –

Row | Structure (SMILES) | Potency | activity change, negative = growth inhibition
25 | COc1ccc(-c2csc(NC(=S)NC(=O)c3cccs3)n2)cc1Br | inconclusive: 29.1 µM [inhibitor, single point] | –
26 | CC(C)(C)C(=O)N1CCN(c2ccc(NC(=O)c3ccc([N+](=O)[O-])o3)cc2)CC1 | active: 6.51 µM | –
27 | O=C(NCCCc1ccccc1)C1CCC(=O)N(Cc2ccc(Cl)cc2)C1 (stereo unspecified) | inconclusive: 20.6 µM [inhibitor, partial curve] | –
28 | COc1ccc(CNC(=O)c2ccc(NS(=O)(=O)c3ccc4[nH]c(=O)[nH]c4c3)cc2)cc1OC | inactive | –
29 | O=C(CSCc1c(F)cccc1Cl)NCCSCc1ccco1 | inactive | –
30 | O=C(c1ccc2c(=O)n(-c3ccccc3)c(=O)[nH]c2c1)N1CCN(Cc2cccs2)CC1 | inconclusive: 17.8 µM [inhibitor, single point] | –
31 | COC(=O)[C@@]12C[C@@H](CC(=O)NCc3ccc(C)o3)C(=O)N(Cc3cccc4ccccc34)C1=CCC(C)(C)C2 | active: 16.4 µM | –
32 | COc1ccc(C)cc1NC(=O)n1ncc2c(C)cccc21 | – | inconclusive: -31% [inhibitor]
33 | O=C(c1cccc(F)c1)N1CCC2(CC1)CN(c1cccc(-c3ccccc3)c1)C2 | active: 16.4 µM | –
34 | O=C(NCc1cccc(Br)c1)c1cccn1-c1nnc(N2CCCCC2)s1 | active: 14.6 µM | –
35 | CCOC(=O)C1=CCN(S(=O)(=O)c2ccccc2F)C1c1ccc(F)cc1 (stereo unspecified) | inconclusive: 29.1 µM [inhibitor, single point] | –
36 | O=C(Nc1ccc(N2CCOCC2)cc1)c1csc(COCCO)n1 | inactive | –
37 | CCN(CC)C(=O)Cn1c(=O)n(CCCCCC(=O)NCc2ccccc2Cl)c(=O)c2sccc21 | inactive | –
38 | Cc1ccc(C)c(-c2cc(C(=O)N/N=C/c3cccnc3)c3ccccc3n2)c1 | inconclusive: 0.164 µM [inhibitor, full curve] | –
39 | COc1ccc(C(=O)/C=C/c2ccc(N3CCCCC3)c([N+](=O)[O-])c2)c(OC)c1 | active: 20.6 µM | –
40 | CN1C(=O)Cc2cc(S(=O)(=O)NCCc3ccccc3)ccc21 | inactive and inconclusive: 10.3 µM [inhibitor, partial curve, poor fit] | –
41 | CC1=Cc2ccccc2C(C#N)N1C(=O)c1ccccc1 (stereo unspecified) | active: 18.4 µM | –
42 | COC(=O)c1ccc(N2CCN(C)CC2)c(NC(=O)c2ccc(-c3ccc(Cl)cc3)o2)c1 | inconclusive: 16.4 µM [inhibitor, single point] | –
43 | CC(=O)C[C@H]1SC[C@@H](C(C)C)N1S(=O)(=O)c1ccc(C)cc1 | active: 13 µM | –
44 | COC(=O)c1c(-c2cc(OC)cc(OC)c2)sc2ccc(OC)cc12 | inconclusive: 20.6 µM [inhibitor, single point] | –
45 | COc1cnc(-c2ccccc2)nc1Oc1ccc(C(C)(C)C)cc1 | inactive | –
46 | O=C(NC1CCCC1)C(c1ccco1)N1CCC(O)(c2ccc(Cl)cc2)CC1 (stereo unspecified) | active: 18.4 µM | –
47 | Cc1nc(Nc2ccc3c(c2)OCO3)c2oc3ccccc3c2n1 | inconclusive: 23.1 µM [inhibitor, single point] | –
48 | Cc1cccc(-c2nc(SCC(=O)Nc3ccc4c(c3)OCO4)c(-c3ccccc3)[nH]2)c1 | inconclusive: 23.1 µM [inhibitor, partial curve, poor fit] | –

Row | Structure (SMILES) | Potency | activity change, negative = growth inhibition
49 | COc1cccc(CN(C)CC(=O)Nc2cc(S(=O)(=O)N3CCCC3)ccc2Cl)c1OC | inconclusive: 16.4 µM [inhibitor, single point] | –
50 | Cc1cc(C)cc(-n2ccnc2SCC(=O)Nc2nccs2)c1 | inconclusive: 29.1 µM [inhibitor, single point] | –
51 | COc1cccc(C(O)c2nc(-c3ccc(F)c(Cl)c3)cs2)c1 (stereo unspecified) | inconclusive: 29.1 µM [inhibitor, single point] | –
52 | CCN(C(=O)COC(=O)/C=C/c1ccc(C)o1)c1c(N)n(Cc2ccccc2)c(=O)[nH]c1=O | inactive | –
53 | CC(C)CCSc1nc2c(c(=O)[nH]c(=O)n2C)n1CCCc1ccccc1 | inconclusive: 29.1 µM [inhibitor, single point] | –
54 | CSc1ccccc1OCc1cc(C(=O)N(Cc2nccn2C)C(C)C)no1 | inconclusive: 20.6 µM [inhibitor, single point] | –
55 | CC(=O)c1nn(-c2ccc(C)cc2)cc1C(=O)c1cccc(Br)c1 | inactive | –
56 | C[N+](C)(C)CC/C=C1/c2ccccc2CSc2ccccc21 | inconclusive: 23.1 µM [inhibitor, partial curve] | –
57 | COCC(=O)Oc1c(Sc2ccccc2[N+](=O)[O-])c(C)nn1C(C)(C)C | inconclusive: 16.4 µM [inhibitor, single point] | –
58 | COc1ccc2nc(NC(=S)N(C)C)sc2c1 | active: 4.61 µM | –
59 | CCc1ccccc1NC(=O)C1c2ccccc2Oc2ccccc21 | inconclusive: 29.1 µM [inhibitor, single point] | –
60 | Cc1ccc(Cl)cc1N1CCN(C(=O)Cc2c(C(=O)O)[nH]c3ccc(Cl)cc23)CC1 | inactive | –
61 | Fc1ccc(Cn2nnnc2C(c2cccs2)N2CCCCCC2)cc1 (stereo unspecified) | inconclusive: 16.4 µM [inhibitor, single point] | –
62 | COc1ccc(Cl)cc1NS(=O)(=O)c1ccc(OC)c(OC)c1 | inactive | –
63 | O=c1cc(CN2CCN(c3ccccc3F)CC2)c2cc(O)c(-c3ccccc3)cc2o1 | active: 6.51 µM | –
64 | Cc1c(N2C(=O)/C(=C\c3ccccc3O)SC2=S)c(=O)n(-c2ccccc2)n1C | inconclusive: 20.6 µM [inhibitor, single point] | –
65 | COCCCNC(=O)Cn1cnc2sc(C)c(S(=O)(=O)N3CCN(c4ccccc4OC)CC3)c2c1=O | inactive | –
66 | CSc1sc(C(=O)O)c(C)c1C(C)=O | inconclusive: 0.206 µM [inhibitor, full curve] | –
67 | CCN1CCN(C(=O)c2ccc3c(c2)N(Cc2cccc(F)c2)C(=O)c2ccccc2S3)CC1 | inconclusive: 29.1 µM [inhibitor, single point] | –
68 | COC(=O)Nc1ccc(S(=O)(=O)NNC(=O)c2c(O)c3ccccc3[nH]c2=O)cc1 | active: 23.1 µM | –
69 | Nc1nc2ccccc2n1S(=O)(=O)c1ccc([N+](=O)[O-])cc1 | active: 20.6 µM | –
70 | Cc1ccc2c(CC(=O)N3CCN(c4ccccc4)CC3)coc2c1 | inactive | –
71 | O=C(NCc1ccccn1)C1CCN(S(=O)(=O)c2cc(Cl)ccc2Cl)CC1 | inactive | –

From PubChem BioAssay AID686978 (National Center for Advancing Translational Sciences (NCATS), 2013)
